Experimental data as given in a collection of fitness landscapes (doi:10.1126/science.1257360).
Some of the results follow.

B1: PhoQ; a variant is named by its letters at X, in order, P23837 (parent)
chain: MKKLLRLFFPLSLRVRFLLATAAVVLVLSLAYGMVALIGYSVSFDKTTFRLLRGESNLFYTLAKWENNKLHVELPENIDKQSPTMTLIYDENGQLLWAQRDVPWLMKMIQPDWLKSNGFHEIEADVNDTSLLLSGDHSIQQQLQEVREDDDDAEMTHSVAVNVYPATSRMPKLTIVVVDTIPVELKSSYMVWSWFIYVLSANLLLVIPLLWVAAWWSLRPIEALAKEVRELEEHNRELLNPATTRELTSLVRNLNRLLKSERERYDKYRTTLTDLTHSLKTPLXXLQXXLRSLRSEKMSVSDAEPVMLEQISRISQQIGYYLHRASMRGGTLLSRELHPVAPLLDNLTSALNKVYQRKGVNISLDISPEISFVGEQNDFVEVMGNVLDNACKYCLEFVEISARQTDEHLYIVVEDDGPGIPLSKREVIFDRGQRVDTLRPGQGVGLAVAREITEQYEGKIVAGESMLGGARMEVIFGRQHSAPKDE

Variants of: B1
Assay: enrichment ratio after two sorts for PhoP signalling (ratio (wild type AVST 3.29)); higher = more functional
Details: with PhoP (E. coli)

Row | Variant | enrichment ratio
1 | VGKN | ≤ 0.25
2 | CFLI | ≤ 0.25
3 | YALG | 5.75
4 | NKNF | ≤ 0.25
5 | VTHK | ≤ 0.25
6 | LDYK | ≤ 0.25
7 | IQIL | ≤ 0.25
8 | PHYD | ≤ 0.25
9 | SVAM | 8.22
10 | VVKL | ≤ 0.25
11 | FMNI | ≤ 0.25
12 | AKVT | 12.6
13 | HEIN | ≤ 0.25
14 | SWGK | ≤ 0.25
15 | THMN | 12.7
16 | GATW | ≤ 0.25
17 | DVAS | ≤ 0.25
18 | DFAK | ≤ 0.25
19 | AVYF | ≤ 0.25
20 | ETPG | ≤ 0.25
21 | LFSC | ≤ 0.25
22 | ASCM | 11.6
23 | MTDL | ≤ 0.25
24 | DNHC | ≤ 0.25
25 | VGWE | ≤ 0.25
26 | LQAK | ≤ 0.25

Row | Variant | enrichment ratio
27 | INYR | ≤ 0.25
28 | HTKL | ≤ 0.25
29 | DDNH | ≤ 0.25
30 | TYHW | ≤ 0.25
31 | WKWD | ≤ 0.25
32 | VNSC | ≤ 0.25
33 | DHFP | ≤ 0.25
34 | KRLW | ≤ 0.25
35 | DASY | ≤ 0.25
36 | KYYL | ≤ 0.25
37 | FNYM | ≤ 0.25
38 | GGVL | 7.68
39 | LTWG | ≤ 0.25
40 | GSMA | 1.36
41 | WHAG | ≤ 0.25
42 | DHLW | ≤ 0.25
43 | YDPV | ≤ 0.25
44 | MFLV | ≤ 0.25
45 | SEQY | 4.45
46 | MLWE | ≤ 0.25
47 | SMIK | ≤ 0.25
48 | QISG | 4.76
49 | KHHV | ≤ 0.25
50 | NVPH | ≤ 0.25
51 | DAQA | ≤ 0.25
52 | LMYI | ≤ 0.25

Row | Variant | enrichment ratio
53 | GQGC | ≤ 0.25
54 | EDPY | ≤ 0.25
55 | VHRH | ≤ 0.25
56 | VLHC | ≤ 0.25
57 | TYHP | ≤ 0.25
58 | YYDT | ≤ 0.25
59 | EDIQ | ≤ 0.25
60 | KEFT | ≤ 0.25
61 | PGFY | ≤ 0.25
62 | LHHC | ≤ 0.25
63 | WDEL | ≤ 0.25
64 | FPDF | ≤ 0.25
65 | QYEG | ≤ 0.25
66 | TNYA | ≤ 0.25
67 | FHTW | 1.17
68 | PDMW | ≤ 0.25
69 | DSQR | ≤ 0.25
70 | VSAP | ≤ 0.25
71 | TNEV | ≤ 0.25
72 | WHLD | ≤ 0.25
73 | ARAS | ≤ 0.25
74 | GHVQ | ≤ 0.25
75 | YQKM | ≤ 0.25
76 | HEFP | ≤ 0.25
77 | GGTT | ≤ 0.25
78 | FHSR | ≤ 0.25

Row | Variant | enrichment ratio
79 | YKPA | ≤ 0.25
80 | QATF | ≤ 0.25
81 | MSMC | 7.95
82 | DKPI | ≤ 0.25
83 | KLPY | ≤ 0.25
84 | MPNR | ≤ 0.25
85 | NVRP | ≤ 0.25
86 | PPAT | ≤ 0.25
87 | VKCR | ≤ 0.25
88 | IMMC | ≤ 0.25
89 | FCSH | ≤ 0.25
90 | VYGK | ≤ 0.25
91 | SQKH | ≤ 0.25
92 | EYRH | ≤ 0.25
93 | LTMS | ≤ 0.25
94 | VGFN | ≤ 0.25
95 | YHTA | 1.57
96 | KPSQ | ≤ 0.25
97 | ADFN | ≤ 0.25
98 | VCYY | ≤ 0.25
99 | HEVN | ≤ 0.25
100 | WQGF | ≤ 0.25
101 | VWRY | ≤ 0.25
102 | KNPC | ≤ 0.25
103 | VRFR | ≤ 0.25
104 | NYQG | ≤ 0.25

Row | Variant | enrichment ratio
105 | YNVM | ≤ 0.25
106 | HHAV | ≤ 0.25
107 | FYRR | ≤ 0.25
108 | MEFL | 8.98
109 | TGRL | ≤ 0.25
110 | WKCK | ≤ 0.25
111 | RQYN | ≤ 0.25
112 | HRKA | ≤ 0.25
113 | GFTP | ≤ 0.25
114 | PAKS | ≤ 0.25
115 | EQDS | ≤ 0.25
116 | SNNK | ≤ 0.25
117 | YMAR | ≤ 0.25
118 | EIVD | ≤ 0.25
119 | CSAP | ≤ 0.25
120 | ENPF | ≤ 0.25
121 | YSIQ | ≤ 0.25
122 | EPHI | ≤ 0.25
123 | HLGN | ≤ 0.25
124 | GHEP | ≤ 0.25
125 | VINW | ≤ 0.25
126 | VYWV | ≤ 0.25
127 | HAAY | ≤ 0.25
128 | NAKT | ≤ 0.25
129 | YSNY | ≤ 0.25
130 | KGQA | ≤ 0.25

Row | Variant | enrichment ratio
131 | LFNI | ≤ 0.25
132 | MRHG | ≤ 0.25
133 | MYDC | ≤ 0.25
134 | AKWE | ≤ 0.25
135 | FGFE | ≤ 0.25
136 | PIFF | ≤ 0.25
137 | NREH | ≤ 0.25
138 | QIGF | 12.5
139 | LFLI | 0.396
140 | EMFS | ≤ 0.25
141 | LHFK | ≤ 0.25
142 | PWID | ≤ 0.25
143 | PVTE | ≤ 0.25
144 | FSYV | ≤ 0.25
145 | HTYC | ≤ 0.25
146 | IHTQ | ≤ 0.25
147 | PKWE | ≤ 0.25
148 | DYHT | ≤ 0.25
149 | FPCT | ≤ 0.25
150 | NAYW | ≤ 0.25
151 | KMWS | ≤ 0.25
152 | ENAM | ≤ 0.25
153 | PANS | ≤ 0.25
